Source: PubChem BioAssay AID1159614 (National Center for Advancing Translational Sciences (NCATS), 2016)
About 65 (0.1%) of roughly 45,000 compounds were called active. Calls follow the shape of the dose curve; as a rule, active = well fitted activation curve with a large enough effect; inconclusive = small, poorly fitted or top-dose-only effect; inactive = no such curve, though single readings can be large or run the other way. The list shows a part of the results.

These molecules were tested against Galactocerebrosidase (Homo sapiens) (UniProt P54803) (assay: A Novel Cell-Based Assay to Identify Small Molecules for B -Galactocerebrosidase). Settings: 145M-Twi-hGALC-G270D cells (Twitcher mouse brain line with human GALC G270D), HMU-beta-Gal fluorescence, 48 h; series mostly up to 57.5 µM; activation: at the top concentration.
Procedure, shortened: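 Fluorogenic HMU-b-Gal hydrolysis (0.1 mM final, pH 5.2 citrate-phosphate with 1 mg/mL sodium taurocholate; carbonate stop buffer) measures mutant GALC activity after compound treatment of live 145M-Twi Twitcher brain cells stably carrying human GALC-G270D, with wild-type GALC line alongside; activation sought.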
Also: 0% is about no effect; nearly all actives have a fitted effect of over 65% in size.

Sequence of UniProt P54803 (P54803 whole entry, looked up): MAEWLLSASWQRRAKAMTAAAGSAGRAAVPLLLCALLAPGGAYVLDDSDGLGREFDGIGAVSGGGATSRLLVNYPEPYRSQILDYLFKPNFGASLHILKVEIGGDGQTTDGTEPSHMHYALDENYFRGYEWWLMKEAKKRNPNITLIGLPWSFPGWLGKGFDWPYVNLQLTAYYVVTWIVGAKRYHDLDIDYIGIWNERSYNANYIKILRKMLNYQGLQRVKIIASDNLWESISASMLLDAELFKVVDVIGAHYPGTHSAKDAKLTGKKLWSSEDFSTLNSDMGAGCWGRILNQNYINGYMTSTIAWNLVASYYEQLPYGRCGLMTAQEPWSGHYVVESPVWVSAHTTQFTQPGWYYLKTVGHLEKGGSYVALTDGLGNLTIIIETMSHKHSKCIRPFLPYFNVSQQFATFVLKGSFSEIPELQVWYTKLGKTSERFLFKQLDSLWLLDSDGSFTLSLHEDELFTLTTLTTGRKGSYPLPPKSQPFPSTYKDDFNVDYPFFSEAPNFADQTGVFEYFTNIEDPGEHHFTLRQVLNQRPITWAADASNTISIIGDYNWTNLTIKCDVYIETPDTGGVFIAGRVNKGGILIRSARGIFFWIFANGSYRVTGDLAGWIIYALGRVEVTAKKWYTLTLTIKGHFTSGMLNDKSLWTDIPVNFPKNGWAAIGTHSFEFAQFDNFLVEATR

activation, inactive:
CCc1ccc(-n2c(=O)c3c4c(sc3n(Cc3cc(=O)n5c(C)cccc5n3)c2=O)CCC4)cc1 -1.69%
CCOC(=O)c1[nH]c2c(c1Cc1ccccc1OC)C(=O)CC(c1ccc(OC)cc1)C2 (configuration not stated) -6.66%
N=C1N=C(N)c2cc3ccccc3cc21 -11.3% [at 114 µM]
Cc1ccc(NC(=O)Cn2nc(C(F)(F)F)c3c2CCCC3)cc1C -2.1%
Cc1ccc(N2C(=O)c3n[nH]c(C)c3C2c2ccc(Cl)cc2)cc1 (configuration not stated) -2.39%
Cc1ccc2c(c1)N(CC(=O)NCCc1ccccc1)C(=O)CO2 2.32%
CCc1ccccc1NS(=O)(=O)c1ccc2nc(-c3ccccc3)[nH]c2c1 -2.95%
CC(C)OCCCNC(=O)C(=O)Nc1c2c(nn1-c1ccccc1)CS(=O)(=O)C2 -13.9%
Cc1ccc(C)c(NC(=O)CN2C(=O)C3(SCC(=O)N3c3ccc(C)c(C)c3)c3ccccc32)c1 (configuration not stated) -23.5%
O=C(Cn1nc(-c2ccccc2)c2cnc3ccccc3c21)Nc1ccccc1 -10.9%
Cc1ccc(Cn2nnc3sc4c(c3c2=O)CCC(C)C4)cc1 (configuration not stated) -10.7%
CCC(=O)N1CCc2cc(CNS(=O)(=O)c3c(C)cc(C)cc3C)ccc21 -13.5%
CC1=C(C(=O)Nc2cccnc2)C(c2ccccc2)n2nc(SCc3ccccc3)nc2N1 (configuration not stated) -4%
COC(=O)c1ccccc1NC(=O)c1cc(-c2ccc(Cl)cc2)on1 5.62%
Cc1ccc2nc(-c3ccc(Cl)c(NC(=O)c4ccc5c(c4)OCCO5)c3)oc2c1 -21.1%
Cc1nnc(NCc2ccc(Cl)cc2)c2c1nnn2Cc1ccc(F)cc1 -30.7%
CC1CCc2nc3ncn(Cc4ccc(Cl)cc4)c(=O)c3cc2C1 (configuration not stated) -3.14%
CCCCOc1ccc(C(=O)Nc2ccc(S(=O)(=O)Nc3nc(C)cc(C)n3)cc2)cc1 -7.67%
Cc1nc2ccccc2n1CCc1nc2c3ccccc3nc(SCC(=O)Nc3cccc(C(F)(F)F)c3)n2n1 -7.98%
CCc1ccc2ncc(S(=O)(=O)c3ccc(Cl)cc3)c(N3CCN(CC)CC3)c2c1 -21.6%
Cn1c(=O)n(-c2ccc3c(c2)OCO3)c2nc(-c3ccc(Cl)cc3)nc(C(N)=O)c21 -6.07%
O=C(CCC1N=C2c3ccccc3N=C(SCc3ccccc3Cl)N2C1=O)NCCc1ccccc1 (configuration not stated) -19%
Cc1ccccc1NC(=O)CSc1nc(-c2ccc(F)cc2)nc2c1Cc1ccccc1O2 -1.91%
COc1ccc2c(Sc3ccccc3)c(C(=O)NCC(C)c3ccccc3)[nH]c2c1 (configuration not stated) -24.5%
Cc1cc(C)nc(NS(=O)(=O)c2ccc(NC(=O)c3ccccc3O)cc2)n1 6.75%
COc1ccc(Br)cc1Cn1nnc(C(=O)Nc2ccc(C)cc2C)c1N -13.8%
CCCCOc1ccc(C(=O)N2CC(=O)Nc3ccc(Br)cc3C2c2ccc(F)cc2)cc1 (configuration not stated) -8.48%
